For this data set, the system named is ATP. Kind of data set: switch fluorescence ratio, 500 uM ATP over buffer (Cy3 cluster intensity, sum of 5 cycles each) (fold (ratio)); higher = stronger signal-on switching upon ATP binding; sequences stand for … in TCGTCGGCAGCGTCAGATGTGTATAAGAGACAGTTTTTTTTTTTTTTTTTTTTTTTTT…TC. The following applies: aptamer strand: ATP DNA aptamer (quencher-CACCTGGGGGAGTATTGCGGAGGAAGG + anchor), 100 nM annealed; ATP concentration: 500 uM; one replicate. The method, boiled down:
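Exposure to 500 uM ATP lasted 15 min at 22 °C before imaging, and a selection-buffer image was taken beforehand, for Cy3-labelled switching-strand clusters on a modified Illumina MiSeq flow-cell annealed to 100 nM quencher-labelled ATP aptamer. Five buffer/ATP cycles were run with NaOH stripping and re-annealing between them. The fluorescence ratio per cluster is summed target-cycle over summed buffer-cycle Cy3 intensity, averaged per switch-domain sequence. Clusters outside 100-1000 RFU were excluded.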

Sequences with one replicate were seen in a single cluster, so their values are uncertain.

Consider TCCATCACCC, for which the switch fluorescence ratio amounted to 1.05.

Consider TAATGAAATT, for which the switch fluorescence ratio was 1.01. With GCACTATCTA, the switch fluorescence ratio was 1.03. For ACTGCATTGG, the switch fluorescence ratio turned out to be 1.12. The value for ATAACCAGG was 1.39. The value for GAAGAATTGC was 0.998; that for CGCCCATGGT was 1.7.

For the sequence AAGGTATCCA, the switch fluorescence ratio was 1.01. As to CGGAAAGTGG, the switch fluorescence ratio came out at 0.976. The value for GTATATGTAT was 0.972; that for ATGATGCTAT was 1.03. As for CGAGGCCTTG, the switch fluorescence ratio was found to be 0.995. The value for GCATGGACAA was 0.989; that for CCAGGTGGGC was 1.38. The value for TCTGGCGGCT was 1.04; that for TCCCCGTGC was 1.28; that for GCGGCGCACT was 0.999. The value for AAGATTTCGA was 0.923; that for CCATTCCTGG was 1.03; that for GGATTTGAA was 0.965. Take CCCTCAGGGC: the switch fluorescence ratio stood at 1.43. On to GCAGCAGGAA, for which the switch fluorescence ratio was 2.15.

For the sequence AAGCTGCGTG, the switch fluorescence ratio is 1.01.

As to CGCTACGAGA, the switch fluorescence ratio came to 1.09. The value for AAATGAACGG was 1.08; that for ATATTAGCGA was 1.04. With TCATATACTA, the switch fluorescence ratio turned out to be 1.

Regarding TAGTTGTGGC, the switch fluorescence ratio came out at 0.988. Turning to ACGGTAAAAT, the switch fluorescence ratio was 1.14. The value for CTCACCTCGG was 1.08; that for TATAAAGCTG was 0.927; that for TATGACATCG was 1.02. AACTCCGTA: the switch fluorescence ratio came out at 1.31. The value for CATCTTATTT was 0.969. The value for TGGCCGGG was 1.01; that for ACTCGCGGTT was 1.04. The value for GTGCGGGACT was 1.01. Regarding TCGGGTAGCC, the switch fluorescence ratio worked out at 1.03. The value for ATAGGTTATT was 0.983; that for TAACGAGTCC was 1.02. As for CTCAAAAAAT, the switch fluorescence ratio is 0.839. The value for CCGCGCTTCT was 1.52. In the case of GGCCCCTCCT, the switch fluorescence ratio is 1.06. The value for GGGTAGCCTT was 0.983.

As to TCGGCGTCTC, the switch fluorescence ratio was 1.03. For the sequence GAGAGCCGT, the switch fluorescence ratio worked out at 0.917. The value for TGGAATTTGT was 1; that for CATCGACCTC was 1.03; that for TGAACATACT was 1.17. Consider ACCACAATCG, for which the switch fluorescence ratio worked out at 1.08. For the sequence GAGTTTTACT, the switch fluorescence ratio worked out at 0.992. The value for ACTTACGTGG was 1.25; that for CGCGAGCGAC was 1; that for GGCATACCAG was 1.02.

As to CAGACCAAGC, the switch fluorescence ratio turned out to be 1.25.

As to TCGGAGAAGT, the switch fluorescence ratio came out at 0.993. The value for ATATATTTGC was 1.01; that for CTAATTGAAA was 1.01; that for CGTAGACGAC was 1.01. For the sequence ACGGTTATAA, the switch fluorescence ratio came out at 1.05. The value for GGATGCTA was 0.976.

Turning to ACCATGCATC, the switch fluorescence ratio is 1.08. Regarding CAATTATCCT, the switch fluorescence ratio was found to be 1.05. The value for CGCGGCGCTT was 1.01; that for ACCGTAACGC was 1.45; that for TAATTGGAAC was 0.999.

With CCTTGTTCAC, the switch fluorescence ratio is 1.04.

The values above are taken from the supplement of paper PMC10126150.
